The list shows a part of the results.
Each compound was assayed on S. aureus RN4220 (assay: growth inhibition call (relative growth <= 0.2)). Details: 50 µM.

Growth inhibition call, inactive:
C[C@@H]1CCCCO[C@H](CN(C)Cc2ccc3c(c2)OCO3)[C@@H](C)CN([C@H](C)CO)C(=O)c2cc(NS(=O)(=O)c3ccc(Cl)cc3)ccc2O1
C[C@@H]1CN([C@@H](C)CO)S(=O)(=O)c2ccc(C#CC3CCCCC3)cc2O[C@@H]1CN(C)C(=O)Cc1ccncc1
O=C(NCCCN1CCOCC1)C(=O)NC1CC1
NCCCC[C@H](NC(=O)[C@@H]1CCCN1C(=O)[C@@H]1CSSC[C@H](N)C(=O)N[C@@H](Cc2ccc(O)cc2)C(=O)N[C@@H](Cc2ccccc2)C(=O)N[C@@H](CCC(N)=O)C(=O)N[C@@H](CC(N)=O)C(=O)N1)C(=O)NCC(N)=O
C[C@H](NC(=O)C[C@H]1CC[C@@H](NC(=O)CN2CCOCC2)[C@@H](CO)O1)c1ccccc1
C[C@H]1CN([C@@H](C)CO)C(=O)c2cccc(NS(=O)(=O)c3ccc(F)cc3)c2O[C@@H]1CN(C)CC1CC1
COc1ccc(S(=O)(=O)N(C)C[C@H]2Oc3ccc(NC(=O)C4CC4)cc3CC(=O)N([C@@H](C)CO)C[C@@H]2C)cc1
C[C@@H]1CN([C@@H](C)CO)C(=O)c2cc(NC(=O)Nc3ccc(F)cc3)ccc2O[C@H]1CN(C)S(C)(=O)=O
C[C@H]1CN([C@@H](C)CO)C(=O)c2cccc(NC(=O)Nc3ccc(C(F)(F)F)cc3)c2O[C@H]1CN(C)Cc1ccc(C(=O)Nc2ccccc2N)cc1
C[C@@H]1CN([C@H](C)CO)C(=O)c2cc(NC(=O)Cc3ccccc3)ccc2O[C@@H]1CN(C)C(=O)Nc1cccc2ccccc12
